Reference: the supplement of paper PMC9174493
The list shows a part of the results. Single values of this set are uncertain. Values with irradiation are relative to irradiated vehicle.

test system: A549-Dual; test: NF-kB reporter (SEAP) activity, viability-corrected, relative to vehicle (fold change vs vehicle); higher = more activation of STING-IRF / NF-kB immune response reporter; conditions: 0.1 µM; irradiation: none
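Note: viability correction based on the alamar blue assay, with concentrations leaving 10% survival or less dropped.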

Compound	NF-kB reporter
COc1cc2nccc(Oc3ccc(NC(=O)Nc4cc(C)on4)c(Cl)c3)c2cc1OC [Tivozanib (AV-951)]	0.979
Oc1ccc(/C=C/c2cc(O)cc(O)c2)cc1 [Resveratrol]	1.39
Nc1cccc2c1C(=O)N(C1CCC(=O)NC1=O)C2=O (centres undefined) [Pomalidomide]	1.02
COc1cc(C2c3cc4c(cc3C(OC3OC5COC(c6cccs6)OC5C(O)C3O)C3COC(=O)C23)OCO4)cc(OC)c1O (centres undefined) [Teniposide]	1.34
S=c1nc[nH]c2nc[nH]c12 [Mercaptopurine (6-MP)]	0.999
CC(C(=O)O)c1ccc2c(c1)CC(=O)c1ccccc1S2 (centres undefined) [Zaltoprofen]	1.1
Cc1nc(Nc2ncc(C(=O)Nc3c(C)cccc3Cl)s2)cc(N2CCN(CCO)CC2)n1.Cl [Dasatinib hydrochloride]	1.06
O=c1[nH]cc(F)c(=O)[nH]1 [Fluorouracil (5-Fluoracil, 5-FU)]	1.06
COc1cc(/C=C/C(=O)/C=C(O)/C=C/c2ccc(O)c(OC)c2)ccc1O [Curcumin]	1.13
